From article PMC10516938, “Conformational dynamics of cohesin/Scc2 loading complex are regulated by Smc3 acetylation and ATP binding” (Nature Communications, 2023)
Results are given in words; binding and its absence hold for the method and conditions named. In cells and extracts the contact can be indirect. Some results given as binding are weak or reduced against the parent protein; the word gives no strength.

T1: Smc3 M74C (S. cerevisiae) (UniProt P47037)
T1 sequence: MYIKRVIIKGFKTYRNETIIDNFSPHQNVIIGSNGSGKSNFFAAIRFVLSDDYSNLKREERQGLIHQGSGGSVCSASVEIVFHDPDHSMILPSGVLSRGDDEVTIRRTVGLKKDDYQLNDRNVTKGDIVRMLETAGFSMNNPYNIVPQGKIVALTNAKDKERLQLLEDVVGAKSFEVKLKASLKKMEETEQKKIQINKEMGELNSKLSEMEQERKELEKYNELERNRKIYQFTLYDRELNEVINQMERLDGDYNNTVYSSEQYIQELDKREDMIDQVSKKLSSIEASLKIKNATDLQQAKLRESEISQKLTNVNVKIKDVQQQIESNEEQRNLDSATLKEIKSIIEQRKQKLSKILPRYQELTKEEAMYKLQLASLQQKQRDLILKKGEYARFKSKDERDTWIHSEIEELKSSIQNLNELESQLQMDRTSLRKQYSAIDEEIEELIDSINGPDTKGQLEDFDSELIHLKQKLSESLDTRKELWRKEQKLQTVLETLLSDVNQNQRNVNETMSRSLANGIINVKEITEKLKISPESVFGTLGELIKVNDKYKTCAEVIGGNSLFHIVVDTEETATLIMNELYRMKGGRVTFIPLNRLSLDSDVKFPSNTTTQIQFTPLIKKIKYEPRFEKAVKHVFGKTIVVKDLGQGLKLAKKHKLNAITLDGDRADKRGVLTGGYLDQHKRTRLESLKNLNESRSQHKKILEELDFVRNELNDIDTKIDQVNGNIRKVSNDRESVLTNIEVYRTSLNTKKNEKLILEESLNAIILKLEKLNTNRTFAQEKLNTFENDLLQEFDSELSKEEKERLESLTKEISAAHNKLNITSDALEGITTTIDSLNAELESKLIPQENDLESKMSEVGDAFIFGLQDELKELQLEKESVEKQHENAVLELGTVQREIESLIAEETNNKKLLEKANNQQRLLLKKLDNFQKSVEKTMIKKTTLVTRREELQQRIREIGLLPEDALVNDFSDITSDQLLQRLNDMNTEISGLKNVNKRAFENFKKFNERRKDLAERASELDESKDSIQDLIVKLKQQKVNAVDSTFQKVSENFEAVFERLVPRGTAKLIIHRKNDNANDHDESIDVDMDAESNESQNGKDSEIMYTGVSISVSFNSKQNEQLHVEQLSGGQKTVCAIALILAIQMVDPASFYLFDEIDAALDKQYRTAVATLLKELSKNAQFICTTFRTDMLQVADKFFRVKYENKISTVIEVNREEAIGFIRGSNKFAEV


Biological target: T1, Smc3 M74C (S. cerevisiae)
Assay: cross-linking; in vivo BMOE cross-link of cysteine pairs in exponentially grown yeast cells (on ice, 6 min); Scc1-PK immunoprecipitated, western blot

Row | binding | Binder
1 | binds | Scc2 N886C (protein, UniProt Q04002 1-1493) MSYPGKDKNIPGRIIEALEDLPLSYLVPKDGLAALVNAPMRVSLPFDKTIFTSADDGRDVNINVLGTANSTTSSIKNEAEKERLVFKRPSNFTSSANSVDYVPTNFLEGLSPLAQSVLSTHKGLNDSINIEKKSEIVSRPEAKHKLESVTSNAGNLSFNDNSSNKKTKTSTGVTMTQANLAEQYLNDLKNILDIVGFDQNSAEIGNIEYWLQLPNKKFVLTTNCLTKLQMTIKNITDNPQLSNSIEITWLLRLLDVMVCNIKFSKSSLKMGLDDSMLRYIALLSTIVLFNIFLLGKNDSNLHRESYIMEPVNFLSDLIESLKILTIEYGSLKIEFDTFQEALELLPKYIRNGPFLDDNVTAKLVYIFSDLLMNNDIEATTNIQFQSFWDNVKRISSDILVSLFGSFDQQRGFIIEELLSHIEKLPTKRIQKKLRKVGNQNIYITDFTFTLMSMLENINCYSFCNQMKDIAPENIDLLKNEYKKQEEFLFNIVEHINDTILERFFKNPSALRYVIDNFVQDLLLLISSPQWPVTEKILSSLLKRLLSVYSPSMQVSANIETICLQLIGNIGSTIFDIKCSTRDHEDNNLIKMINYPETLPHFFKSFEECIAYNETIKCRRSATRFLWNLRLGTILILEEYTKDAKEQIITVDNELKKILEQIKDGGLGPELENREADFSTIKLDYFSILHAFELLNLYDPYLKLILSLLAKDKIKLRSTAIKCLSMLASKDKVILSNPMVKETIHRRLNDSSASVKDAILDLVSINSSYFEFYQQINNNYNDDSIMVRKHVLRINEKMYDETNDIVTKVYVIARILMKIEDEEDNIIDMARLILLNRWILKVHEVLDQPEKLKEISSSVLLVMSRVAIMNEKCSQLFDLFLNFYLLCKEAHSKEAYDKITHVLTILTDFLVQKIVELNSDDTNEKNSIVDKQNFLNLLAKFADSTVSFLTKDHITALYPYMVSDEKSDFHYYILQVFRCTFEKLANFKQKFLYDLETTLLSRLPKMNVREIDEAMPLIWSVATHRHDTARVAKACSSCLSHLHPYINKANNEEAAIVVDGKLQRLIYLSTGFARFCFPKPSNDKIAFLQEGETLYEHITKCLLVLSKDKITHVIRRVAVKNLTKLCGNHPKLFNSRHVLHLLDKEFQSDQLDIKLVILESLYDLFLLEERKSVRNTGVNSTLSSNSILKKKLLKTNRVEFANDGVCSALATRFLDNILQLCLLRDLKNSLVAIRLLKLILKFGYTNPSHSIPTVIALFASTSQYIRHVAYELLEDLFEKYETLVFSSLSRGVTKAIHYSIHTDEKYYYKHDHFLSLLEKLCGTGKKNGPKFFKVLKRIMQSYLDDITDLTSTNSSVQKSIFVLCTNISNITFVSQYDLVSLLKTIDLTTDRLKEVIMDEIGDNVSSLSVSEEKLSGIILIQLSLQDLGTYLLHLYGLRDDVLLLDIVEESELKNKQLPAKKPDISKFSAQLENIEQYSSNGKLLTYFRKHVKDT
2 | no binding | Scc2 R830C (protein, UniProt Q04002 1-1493) MSYPGKDKNIPGRIIEALEDLPLSYLVPKDGLAALVNAPMRVSLPFDKTIFTSADDGRDVNINVLGTANSTTSSIKNEAEKERLVFKRPSNFTSSANSVDYVPTNFLEGLSPLAQSVLSTHKGLNDSINIEKKSEIVSRPEAKHKLESVTSNAGNLSFNDNSSNKKTKTSTGVTMTQANLAEQYLNDLKNILDIVGFDQNSAEIGNIEYWLQLPNKKFVLTTNCLTKLQMTIKNITDNPQLSNSIEITWLLRLLDVMVCNIKFSKSSLKMGLDDSMLRYIALLSTIVLFNIFLLGKNDSNLHRESYIMEPVNFLSDLIESLKILTIEYGSLKIEFDTFQEALELLPKYIRNGPFLDDNVTAKLVYIFSDLLMNNDIEATTNIQFQSFWDNVKRISSDILVSLFGSFDQQRGFIIEELLSHIEKLPTKRIQKKLRKVGNQNIYITDFTFTLMSMLENINCYSFCNQMKDIAPENIDLLKNEYKKQEEFLFNIVEHINDTILERFFKNPSALRYVIDNFVQDLLLLISSPQWPVTEKILSSLLKRLLSVYSPSMQVSANIETICLQLIGNIGSTIFDIKCSTRDHEDNNLIKMINYPETLPHFFKSFEECIAYNETIKCRRSATRFLWNLRLGTILILEEYTKDAKEQIITVDNELKKILEQIKDGGLGPELENREADFSTIKLDYFSILHAFELLNLYDPYLKLILSLLAKDKIKLRSTAIKCLSMLASKDKVILSNPMVKETIHRRLNDSSASVKDAILDLVSINSSYFEFYQQINNNYNDDSIMVRKHVLRINEKMYDETNDIVTKVYVIARILMKIEDEEDNIIDMACLILLNRWILKVHEVLDQPEKLKEISSSVLLVMSRVAIMNEKCSQLFDLFLNFYLLNKEAHSKEAYDKITHVLTILTDFLVQKIVELNSDDTNEKNSIVDKQNFLNLLAKFADSTVSFLTKDHITALYPYMVSDEKSDFHYYILQVFRCTFEKLANFKQKFLYDLETTLLSRLPKMNVREIDEAMPLIWSVATHRHDTARVAKACSSCLSHLHPYINKANNEEAAIVVDGKLQRLIYLSTGFARFCFPKPSNDKIAFLQEGETLYEHITKCLLVLSKDKITHVIRRVAVKNLTKLCGNHPKLFNSRHVLHLLDKEFQSDQLDIKLVILESLYDLFLLEERKSVRNTGVNSTLSSNSILKKKLLKTNRVEFANDGVCSALATRFLDNILQLCLLRDLKNSLVAIRLLKLILKFGYTNPSHSIPTVIALFASTSQYIRHVAYELLEDLFEKYETLVFSSLSRGVTKAIHYSIHTDEKYYYKHDHFLSLLEKLCGTGKKNGPKFFKVLKRIMQSYLDDITDLTSTNSSVQKSIFVLCTNISNITFVSQYDLVSLLKTIDLTTDRLKEVIMDEIGDNVSSLSVSEEKLSGIILIQLSLQDLGTYLLHLYGLRDDVLLLDIVEESELKNKQLPAKKPDISKFSAQLENIEQYSSNGKLLTYFRKHVKDT
